# The list shows a part of the results. Many values rest on one well or one pass, so single values are uncertain.
# Assays:
# Assay in all cases: cell count relative to DMSO control; melanoma cells; higher = more viable cells
# Details in all cases: library dose: low library concentration; 72 h
# WM115 = test system: WM115
# WM1716 = test system: WM1716
# WM1745 = test system: WM1745
# WM3526 = test system: WM3526
# WM3619 = test system: WM3619
# WM451Lu = test system: WM451Lu
# 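Also: cell number obtained by counting DAPI-stained nuclei in high-throughput microscope images with image analysis software, screen run in 1,536-well plates.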
Structure (SMILES),cell count (WM115) [%],cell count (WM1716) [%],cell count (WM1745) [%],cell count (WM3526) [%],cell count (WM3619) [%],cell count (WM451Lu) [%]
"C[C@]12O[C@H](C[C@]1(O)CO)n1c3ccccc3c3c4c(c5c6ccccc6n2c5c31)CNC4=O [Lestaurtinib] + Nc1ccn([C@@H]2O[C@H](CO)[C@@H](O)C2(F)F)c(=O)n1 [gemcitabine] (first compound 0.004 µM, partner dose 0.0004 µM)",91.5,106,64,93.2,65.8,112
"C[C@]12O[C@H](C[C@]1(O)CO)n1c3ccccc3c3c4c(c5c6ccccc6n2c5c31)CNC4=O [Lestaurtinib] + N#Cc1c(O)c2c(-c3ccc(-c4ccccc4O)cc3)csc2[nH]c1=O [A769662] (first compound 0.004 µM, partner dose 2 µM)",108,98.6,83.6,83.6,88,113
"N.N.[Cl][Pt][Cl] [cisplatin] + COc1ccc2c(c1)CCC1C2CCC2(C)C(NCCCCCCN3C(=O)C=CC3=O)CCC12 [U73122] (first compound 1.6 µM, partner dose 0.4 µM)",98.7,83.2,97.9,80.6,80.2,91.4
"C[As](C)SC[C@H](NC(=O)CC[C@H](N)C(=O)O)C(=O)NCC(=O)O [Darinaparsin] + CC(C)(C)c1cnc(CSc2cnc(NC(=O)C3CCNCC3)s2)o1 [SNS-032] (first compound 0.4 µM, partner dose 0.01 µM)",86.7,86.4,82.4,85.9,90.4,101
"Cn1cc(C2=C(c3cn(C4CCN(Cc5ccccn5)CC4)c4ccccc34)C(=O)NC2=O)c2ccccc21 [Enzastaurin] + C[C@]1(c2nc3c(C(N)=O)cccc3[nH]2)CCCN1 [Veliparib] (first compound 0.8 µM, partner dose 1.4 µM)",93.6,83,85.6,110,97.2,96.8
"Cn1cc(C2=C(c3cn(C4CCN(Cc5ccccn5)CC4)c4ccccc34)C(=O)NC2=O)c2ccccc21 [Enzastaurin] + COc1ccc2c(c1)CCC1C2CCC2(C)C(NCCCCCCN3C(=O)C=CC3=O)CCC12 [U73122] (first compound 0.8 µM, partner dose 0.4 µM)",95.5,89.4,98.9,108,107,90.6
"N.N.[Cl][Pt][Cl] [cisplatin] + Cc1cc([N+](=O)[O-])ccc1NS(=O)(=O)c1cc(Cl)ccc1Cl [FH535] (first compound 1.6 µM, partner dose 1 µM)",81.9,100,94.7,99.9,100,87.5
"Cn1cc(C2=C(c3cn(C4CCN(Cc5ccccn5)CC4)c4ccccc34)C(=O)NC2=O)c2ccccc21 [Enzastaurin] + Cn1cc(/C=C2\C(=O)Nc3cccnc32)c2ccccc21 [GW441756] (first compound 0.8 µM, partner dose 0.4 µM)",121,112,89.7,111,92.8,91.2
"N.N.[Cl][Pt][Cl] [cisplatin] + O=S(=O)(c1ccccc1)N(CC(F)(F)F)c1ccc(C(O)(C(F)(F)F)C(F)(F)F)cc1 [T0901317] (first compound 1.6 µM, partner dose 1.4 µM)",100,97.5,93.5,92.4,101,116
"N.N.[Cl][Pt][Cl] [cisplatin] + Oc1nc(-c2ccc(C(F)(F)F)cc2)nc2c1CSCC2 [XAV939] (first compound 1.6 µM, partner dose 2 µM)",91.9,63.2,95.1,87.3,79.2,93.2
"Cn1cc(C2=C(c3cn(C4CCN(Cc5ccccn5)CC4)c4ccccc34)C(=O)NC2=O)c2ccccc21 [Enzastaurin] + CN(c1ncccc1CNc1nc(Nc2ccc3c(c2)CC(=O)N3)ncc1C(F)(F)F)S(C)(=O)=O [PF562271] (first compound 0.8 µM, partner dose 0.08 µM)",80.6,89.7,90,119,108,77.7
"Cn1cc(C2=C(c3cn(C4CCN(Cc5ccccn5)CC4)c4ccccc34)C(=O)NC2=O)c2ccccc21 [Enzastaurin] + CC(=O)c1c(C)c2cnc(Nc3ccc(N4CCNCC4)cn3)nc2n(C2CCCC2)c1=O [palbociclib] (first compound 0.8 µM, partner dose 0.04 µM)",85,75.9,72.3,46.4,99.4,98.4
"C[C@]12O[C@H](C[C@]1(O)CO)n1c3ccccc3c3c4c(c5c6ccccc6n2c5c31)CNC4=O [Lestaurtinib] + Cc1cc(N2CCOCC2)cc2[nH]c(-c3c(NC[C@@H](O)c4cccc(Cl)c4)cc[nH]c3=O)nc12 [BMS536924] (first compound 0.004 µM, partner dose 0.2 µM)",106,89.1,82.8,61.1,140,61.7
"N.N.[Cl][Pt][Cl] [cisplatin] + O=C(Nc1ccccc1)c1cc([N+](=O)[O-])ccc1Cl [GW9662] (first compound 1.6 µM, partner dose 2 µM)",102,89.9,98,87.9,92.5,110
"C[As](C)SC[C@H](NC(=O)CC[C@H](N)C(=O)O)C(=O)NCC(=O)O [Darinaparsin] + COC(=O)c1sccc1S(=O)(=O)Nc1ccc(Nc2ccccc2)cc1OC [GSK0660] (first compound 0.4 µM, partner dose 1 µM)",101,87.9,111,102,114,97.4
"Cn1cc(C2=C(c3cn(C4CCN(Cc5ccccn5)CC4)c4ccccc34)C(=O)NC2=O)c2ccccc21 [Enzastaurin] + CC(C)C[C@H](NC(=O)[C@H](Cc1ccccc1)NC(=O)c1cnccn1)B(O)O [Bortezomib] (first compound 0.8 µM, partner dose 0.001 µM)",115,62,43.5,103,8.95,106
"C[As](C)SC[C@H](NC(=O)CC[C@H](N)C(=O)O)C(=O)NCC(=O)O [Darinaparsin] + Oc1nc(-c2ccc(C(F)(F)F)cc2)nc2c1CSCC2 [XAV939] (first compound 0.4 µM, partner dose 2 µM)",84.5,82.1,72.2,121,119,105
"C[As](C)SC[C@H](NC(=O)CC[C@H](N)C(=O)O)C(=O)NCC(=O)O [Darinaparsin] + Cn1cncc1[C@@](N)(c1ccc(Cl)cc1)c1ccc2c(c1)c(-c1cccc(Cl)c1)cc(=O)n2C [tipifarnib] (first compound 0.4 µM, partner dose 0.01 µM)",88.2,92.3,97.2,87.5,90.5,73.8
"C[As](C)SC[C@H](NC(=O)CC[C@H](N)C(=O)O)C(=O)NCC(=O)O [Darinaparsin] + C[C@]1(c2nc3c(C(N)=O)cccc3[nH]2)CCCN1 [Veliparib] (first compound 0.4 µM, partner dose 1.4 µM)",88.6,106,99.9,91.2,104,93.7
"N.N.[Cl][Pt][Cl] [cisplatin] + CNC(=O)c1cc(Oc2ccc(NC(=O)Nc3ccc(Cl)c(C(F)(F)F)c3)cc2)ccn1 [sorafenib] (first compound 1.6 µM, partner dose 0.4 µM)",92.9,91,97.9,96.7,85.9,95.3
"N.N.[Cl][Pt][Cl] [cisplatin] + NCC(=O)Nc1ccc(-n2nc(C(F)(F)F)cc2-c2ccc3c(ccc4ccccc43)c2)cc1 [OSU03012] (first compound 1.6 µM, partner dose 1 µM)",102,111,98,87.7,109,111
"C[C@]12O[C@H](C[C@]1(O)CO)n1c3ccccc3c3c4c(c5c6ccccc6n2c5c31)CNC4=O [Lestaurtinib] + C=CCNC1=C2C[C@@H](C)C[C@H](OC)[C@H](O)[C@@H](C)/C=C(\C)[C@H](OC(N)=O)[C@@H](OC)/C=C\C=C(/C)C(=O)NC(=CC1=O)C2=O [Tanespimycin] (first compound 0.004 µM, partner dose 0.002 µM)",95,120,94.1,85.4,115,90.7
"C[As](C)SC[C@H](NC(=O)CC[C@H](N)C(=O)O)C(=O)NCC(=O)O [Darinaparsin] + C[C@@H]1CCN(C(=O)CC#N)C[C@@H]1N(C)c1ncnc2[nH]ccc12 [CP690550] (first compound 0.4 µM, partner dose 1 µM)",97.3,102,112,95,106,94
"N.N.[Cl][Pt][Cl] [cisplatin] + N#Cc1c(O)c2c(-c3ccc(-c4ccccc4O)cc3)csc2[nH]c1=O [A769662] (first compound 1.6 µM, partner dose 2 µM)",99,93.2,96.9,101,109,95.8
"N.N.[Cl][Pt][Cl] [cisplatin] + O=c1cc(-c2cccc3c2Sc2ccccc2S3)oc(N2CCOCC2)c1 [KU55933] (first compound 1.6 µM, partner dose 1 µM)",89.2,114,109,102,103,97.5
"C[As](C)SC[C@H](NC(=O)CC[C@H](N)C(=O)O)C(=O)NCC(=O)O [Darinaparsin] + CCN(CC)CCCCNc1ncc2cc(-c3cc(OC)cc(OC)c3)c(NC(=O)NC(C)(C)C)nc2n1 [PD173074] (first compound 0.4 µM, partner dose 0.1 µM)",107,101,88.3,116,96.2,112

# Reference: the supplement of paper PMC4604168 (melanoma cell lines)
